From PubChem BioAssay AID360 (National Center for Advancing Translational Sciences (NCATS), 2006)
About 550 (1.1%) of roughly 48,000 compounds were called active. Another 4% or so got no clear call; they are omitted. Rule as the data show it: active = potency below about 15 µM; inconclusive = mostly about 16 µM to 33 µM; inactive = weaker than that. This is one part of the list.

These compounds were tested against Lysosomal acid glucosylceramidase (Homo sapiens) (UniProt P04062) (assay: Glucocerebrosidase). Conditions: purified enzyme, resorufin glucoside fluorescence (screen aimed at inhibitors), 20 min; series mostly up to 77 µM.
UniProt P04062, sequence (P04062 whole entry, looked up): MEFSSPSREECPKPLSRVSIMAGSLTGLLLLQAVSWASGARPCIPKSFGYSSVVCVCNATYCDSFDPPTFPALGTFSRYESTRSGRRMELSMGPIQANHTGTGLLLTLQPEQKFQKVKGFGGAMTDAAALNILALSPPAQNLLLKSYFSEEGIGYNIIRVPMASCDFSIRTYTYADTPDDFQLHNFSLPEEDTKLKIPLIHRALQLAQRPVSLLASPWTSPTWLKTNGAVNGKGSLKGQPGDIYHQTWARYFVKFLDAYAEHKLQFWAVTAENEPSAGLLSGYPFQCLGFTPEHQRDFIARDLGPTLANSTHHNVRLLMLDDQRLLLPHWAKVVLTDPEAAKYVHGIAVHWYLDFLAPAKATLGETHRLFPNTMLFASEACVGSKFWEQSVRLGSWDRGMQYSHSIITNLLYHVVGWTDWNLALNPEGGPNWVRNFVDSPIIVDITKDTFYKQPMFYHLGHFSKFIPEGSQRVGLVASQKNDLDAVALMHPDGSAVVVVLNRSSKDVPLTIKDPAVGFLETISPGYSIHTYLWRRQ
Method in brief: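 Compounds titrated against 0.2 nM normal enzyme, 30 uM resorufin beta-D-glucopyranoside substrate, citrate/phosphate buffer with taurocholate and tween-20, pH 5.9. Reaction ran 20 min at room temperature; fluorescence (Ex 548/Em 600) gave AC50.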
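Also: the screen sought inhibitors.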
Potency is read from the fitted curve at half-maximal effect.

Potency, inactive:
Cc1ccccc1C1CC(c2ccccc2OC(F)F)Nc2ncnn21 (centres undefined) > 76.9 µM
O=C(NCC(O)c1ccccc1)c1cccc(S(=O)(=O)N2CCOCC2)c1 (centres undefined) > 76.9 µM
Cc1ccc(C(=O)CSc2nnc(-c3ccco3)o2)o1 > 76.9 µM
COc1ccccc1-n1c(SCC(=O)N2CCCC2)nc2cccnc21 > 76.9 µM
CC(C)CC(c1nnnn1C1CCCC1)N1CCN(C(=O)c2ccco2)CC1 (centres undefined) > 76.9 µM
Cc1ccc(-c2nnn(CC(=O)N(c3ccccc3F)C(C(=O)NC3CCCC3)c3ccco3)n2)o1 (centres undefined) > 76.9 µM
Cc1noc(C)c1S(=O)(=O)Nc1c(C)n(C)n(-c2ccccc2)c1=O > 76.9 µM
COCCCNC(=O)CCn1c(=O)c2ccccc2n(CC(=O)Nc2ccccc2C)c1=O > 76.9 µM
COc1ccc(-c2noc(CN(C)S(=O)(=O)c3ccc(Cl)cc3)n2)cc1OC > 76.9 µM
CCOc1ccc(CC(=O)C2C(=O)CCCC2=O)cc1OCC > 76.9 µM
Cc1ccc(Nc2nc(N)nc(CSc3nnnn3-c3ccccc3)n2)cc1 > 76.9 µM
Fc1ccc(N2CCN(C(c3cccs3)c3nnnn3C3CCCC3)CC2)cc1 (centres undefined) > 76.9 µM
CCN(CC)Cc1cc(CC(C(N)=O)C(N)=O)ccc1OC > 76.9 µM
Cc1cccc(C(=O)N2CCC(n3nnc4cc(F)ccc43)CC2)c1 > 76.9 µM
COc1ccc(-c2cc(C(=O)N3CCCc4ccccc43)no2)cc1 > 76.9 µM
CCOC(=O)c1c(N)nn(C(=O)CC)c1-c1ccccc1 > 76.9 µM
COc1ccc(OC)c(C(C(=O)NCc2ccco2)N(C(=O)Cn2nnc3ccccc32)C2CC2)c1 (centres undefined) > 76.9 µM
CC(=O)c1c(N=CN(C)C)nc(C)nc1-c1ccccc1 > 76.9 µM
CCOc1ccccc1N(C(=O)CNC(=O)c1ccco1)C(C(=O)NC1CCCC1)c1cccnc1 (centres undefined) > 76.9 µM
COCCSc1nnc(NC(=O)CSc2ccccc2)s1 > 76.9 µM
CC(C)(/C=N/O)/[N+]([O-])=C/c1ccco1 > 76.9 µM
O=C(OCC(=O)c1c[nH]c2ccccc12)C1=COCCO1 > 76.9 µM
Cc1cccc(NC(=O)Cn2c(C)c(C#N)c3ccccc32)c1C > 76.9 µM
CCn1c(=O)cc(SCC(=O)N2CCN(c3ccccc3OC)CC2)c2ccccc21 > 76.9 µM
CC(=O)c1cc2c(cc1NC(=O)CCc1ccccc1)OCO2 > 76.9 µM
Cc1ccc(-n2nc3c(c2NC(=O)c2ccc4c(c2)OCO4)CSC3)c(C)c1 > 76.9 µM
Cc1cccc(N2CCN(C(=O)CSCc3c(C)noc3C)CC2)c1C > 76.9 µM
CC(C)Oc1ccc(NC(N)=O)cc1 > 76.9 µM
COc1ccc(C2=C(O)C(C)N(c3ccccc3)C2=N)cc1OC (centres undefined) > 76.9 µM
Cc1cc(N2CCC3(CC2)OCCO3)n2nc(C)c(-c3ccc(Cl)cc3)c2n1 > 76.9 µM
O=C(O)C1CCCCC1C(=O)Nc1ccc2c(c1)CCC2 (centres undefined) > 76.9 µM
CCOC(=O)c1c(NC(=O)Cn2c(C)nc3ccccc32)sc2c1CCC2 > 76.9 µM
CCCCC(=O)Nc1ccc(Cl)cn1 > 76.9 µM
O=C(CC(NS(=O)(=O)c1ccc(Cl)cc1)c1ccco1)NCc1cccnc1 (centres undefined) > 76.9 µM
Cc1cc(OCC(=O)NCCN2CCOCC2)ccc1Br > 76.9 µM
CCCCOc1ccccc1NC(=O)CSc1nnnn1C(C)(C)C > 76.9 µM
COC(=O)c1cn(NC(=O)CC2CCCCC2)c(=O)c2ccccc12 > 76.9 µM
CCOCCCNC(=O)C1CCC(=O)N1CCc1ccccc1 (centres undefined) > 76.9 µM
COc1nc(N)nc(CC(=O)C2CC2)n1 > 76.9 µM
CCn1c2ccccc2c2cc(C3N=C(N)Nc4nc5ccccc5n43)ccc21 (centres undefined) > 76.9 µM
CC(C)(C)C(=O)c1no[n+]([O-])c1/C(=N/O)C(C)(C)C
CCN1/C(=C/C(C)=O)Sc2ccc(OC)cc21 > 76.9 µM
CCOC(=O)C1CCCN(C(=O)CNS(=O)(=O)c2ccc(Br)s2)C1 (centres undefined) > 76.9 µM
CCOc1ccc(S(=O)(=O)Nc2ccc(Cl)cn2)c(C)c1C > 76.9 µM
O=C(O)c1ccccc1C(=O)N1CCN(c2ccccc2)CC1 > 76.9 µM
COc1ccccc1NC(=O)Nc1ccc2c(c1)OCCO2 > 76.9 µM
CCc1cc2c(NCC3CCCO3)ncnc2s1 (centres undefined) > 76.9 µM
COCCN(C(=O)COc1ccccc1)c1nnc(-c2cccnc2)s1 > 76.9 µM
CCCCC(c1nnnn1CCOC)N1CCN(c2cccc(OC)c2)CC1 (centres undefined) > 76.9 µM
O=S(=O)(NCc1ccccc1Cl)c1cnc[nH]1 > 76.9 µM
O=C(c1cccc(-n2cnnn2)c1)N1CCOCC1 > 76.9 µM
COCC(=O)NC1CCN(C(=O)NCc2ccccc2)CC1 > 76.9 µM
COc1ccc(NC(C)=O)cc1NC(C)C(=O)Nc1ccccc1F (centres undefined) > 76.9 µM
CCOc1cc(C(=O)Nc2ccon2)cc(OCC)c1OCC > 76.9 µM
O=C(CCc1ccccc1)Nc1nc2ccc(S(=O)(=O)N3CCOCC3)cc2s1 > 76.9 µM
COC(=O)CSc1cc(C(=O)c2nccn2C)c2ccccc2n1 > 76.9 µM
Cc1cc(C)c(S(N)(=O)=O)c(C)c1-n1cnnn1 > 76.9 µM
Cc1ccc(S(=O)(=O)NC(=O)NCc2ccccn2)cc1 > 76.9 µM
O=C(NC1CCS(=O)(=O)C1)C1CCCCN1S(=O)(=O)c1ccc(Cl)cc1 (centres undefined) > 76.9 µM
